Reference: the supplement of paper PMC8285479
Structures can show the parent of a compound that is named as a salt. ± gives the standard deviation of the averaged measurements. Whole data set: some 1,900 compounds, median “normalised cell viability (NPI; 0 = phenylarsine oxide control, 1 = DMSO control)” near 1, cut for the lowest 2% near 0.039. This is one part of the list.

System: NCI-H1944
Test: normalised cell viability (NPI; 0 = phenylarsine oxide control, 1 = DMSO control) (fraction of DMSO control); NCI-H1944 is a non-small cell lung cancer line; higher = more viable cells (less compound toxicity)
Settings: 6 days
[1] = glucocorticoid arm: hydrocortisone 2.75 uM co-treatment, compound 1 µM
[2] = glucocorticoid arm: hydrocortisone 2.75 uM co-treatment, compound 5 µM
[3] = glucocorticoid arm: hydrocortisone 2.75 uM pre-treated 2 days and continued, compound 1 µM
[4] = glucocorticoid arm: hydrocortisone 2.75 uM pre-treated 2 days and continued, compound 5 µM
[5] = glucocorticoid arm: vehicle, compound 1 µM
[6] = glucocorticoid arm: vehicle, compound 5 µM
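Also: CTB read-out in 384-well plates, mean of triplicate wells, normalised per plate against 1 µM phenylarsine oxide and 0.1% DMSO, compounds added 24 h after seeding.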

Structure (SMILES)	normalised cell viability [1]	normalised cell viability [2]	normalised cell viability [3]	normalised cell viability [4]	normalised cell viability [5]	normalised cell viability [6]
CCCCC[C@H](CC(=O)NO)C(=O)N[C@H](C(=O)N1CCC[C@H]1CO)C(C)C [Actinonin]	0.989 ± 0.0095	0.995 ± 0.014	0.993 ± 0.016	0.993 ± 0.0099	0.989 ± 0.005	0.98 ± 0.0098
Cc1nc(N=Nc2ccc(S(=O)(=O)O)cc2S(=O)(=O)O)c(COP(=O)(O)O)c(C=O)c1O	0.989 ± 0.013	0.995 ± 0.022	1.02 ± 0.057	0.9833 ± 0.0087	0.993 ± 0.0062	0.9903 ± 0.0046
Cc1ccc(O)c([C@H](CCN(C(C)C)C(C)C)c2ccccc2)c1 [Tolterodine tartrate]	0.989 ± 0.009	0.956 ± 0.025	0.974 ± 0.026	0.955 ± 0.014	1 ± 0.0087	0.997 ± 0.012
CCN1CCCC1CNC(=O)c1cc(S(N)(=O)=O)ccc1OC (racemic) [(±)-Sulpiride]	0.998 ± 0.012	0.983 ± 0.015	1 ± 0.013	0.979 ± 0.015	0.9903 ± 0.0091	1.001 ± 0.0081
O=c1cc(CN2CCOCC2)occ1OCCCCCSc1ccnc2cc(C(F)(F)F)ccc12	0.965 ± 0.014	0.915 ± 0.015	0.935 ± 0.029	0.907 ± 0.043	0.991 ± 0.011	0.947 ± 0.013
COC1=C(OC)C(=O)c2ccccc2C1=O [2,3-Dimethoxy-1,4-naphthoquinone]	0.994 ± 0.01	0.905 ± 0.047	0.994 ± 0.0066	0.956 ± 0.01	0.997 ± 0.0027	0.8913 ± 0.0032
CCOc1ccc(Cc2cc([C@@H]3O[C@H](CO)[C@@H](O)[C@H](O)[C@H]3O)ccc2Cl)cc1 [Dapagliflozin]	1.01 ± 0.016	1.02 ± 0.026	1.02 ± 0.015	1.04 ± 0.017	1.001 ± 0.0081	1 ± 0.011
CN(C)CCC(c1ccccc1)c1ccccn1 (configuration not stated) [Pheniramine maleate]	0.975 ± 0.002	0.99 ± 0.018	1 ± 0.026	0.984 ± 0.014	0.964 ± 0.002	0.959 ± 0.012
Cn1cc(/C=C/C(=O)c2cccc(F)c2)cc1/C=C/C(=O)NO	0.983 ± 0.026	1.01 ± 0.011	0.99 ± 0.01	1.01 ± 0.013	0.9943 ± 0.009	0.984 ± 0.014
Nc1nccc2c1ncn2C1C=C(CO)C(O)C1O (configuration not stated) [3-Deazaneplanocin A (DZNeP)]	0.889 ± 0.023	0.894 ± 0.016	0.884 ± 0.029	0.898 ± 0.018	0.95 ± 0.0046	0.703 ± 0.013
COc1nc(C)cnc1NS(=O)(=O)c1cccnc1-c1ccc(-c2nnco2)cc1 [Zibotentan (ZD4054)]	1.01 ± 0.013	1 ± 0.021	1.007 ± 0.0058	1.03 ± 0.036	1.007 ± 0.0058	1.007 ± 0.0058
Cn1cc(C2=C(c3cn(CCCSC(=N)N)c4ccccc34)C(=O)NC2=O)c2ccccc21 [Ro 31-8220 Mesylate]	0.998 ± 0.013	0.125 ± 0.013	0.973 ± 0.036	0.297 ± 0.087	1.013 ± 0.0058	0.0242 ± 0.0022
Nc1ccccc1NC(=O)CCCCCCC(=O)Nc1ccccc1	1 ± 0.016	1.03 ± 0.017	1 ± 0.014	1.025 ± 0.0084	1.002 ± 0.0061	1.008 ± 0.0088
N[C@@H](CC(=O)N1CCn2c(nnc2C(F)(F)F)C1)Cc1cc(F)c(F)cc1F [Sitagliptin phosphate monohydrate]	0.9863 ± 0.0025	1.013 ± 0.0058	0.9993 ± 0.0011	1.01 ± 0.019	0.9977 ± 0.004	1.007 ± 0.0058
CC1(C)C(=O)N(CCN2CCC(C(=O)c3ccc(F)cc3)CC2)c2ccccc21 [LY-310,762 hydrochloride]	0.9993 ± 0.0011	0.965 ± 0.02	1.002 ± 0.0068	1.05 ± 0.074	0.988 ± 0.01	1.01 ± 0.02
CC(C)(C)OC(=O)N[C@H]1CCCCC/C=C\[C@@H]2C[C@@]2(C(=O)NS(=O)(=O)C2CC2)NC(=O)[C@@H]2C[C@@H](OC(=O)N3Cc4cccc(F)c4C3)CN2C1=O [Danoprevir]	0.997 ± 0.011	1.02 ± 0.017	1 ± 0.024	1.03 ± 0.01	1.002 ± 0.0076	1.007 ± 0.0058

Structure (SMILES)	normalised cell viability [1]	normalised cell viability [2]	normalised cell viability [3]	normalised cell viability [4]	normalised cell viability [5]	normalised cell viability [6]
NC(=O)Nc1sc(-c2ccc(F)cc2)cc1C(N)=O	0.737 ± 0.051	0.483 ± 0.002	0.8183 ± 0.0025	0.621 ± 0.027	0.907 ± 0.012	0.322 ± 0.015
CCCC(=O)Nc1ccc(OCC(O)CNC(C)C)c(C(C)=O)c1 (configuration not stated) [Acebutolol HCl]	1.01 ± 0.01	1.02 ± 0.025	0.999 ± 0.028	1.03 ± 0.032	0.999 ± 0.001	0.9927 ± 0.0029
N=C(N)N1CCc2ccccc2C1 [Debrisoquin sulfate]	0.9857 ± 0.008	0.937 ± 0.015	0.991 ± 0.0061	0.951 ± 0.011	0.9887 ± 0.0057	0.974 ± 0.011
O=C(O)Cc1ccc(O)c(O)c1 [3,4-Dihydroxyphenylacetic acid]	1.007 ± 0.0058	0.991 ± 0.0046	1.002 ± 0.0076	0.989 ± 0.011	0.987 ± 0.0052	0.9853 ± 0.0038
CCCCC1C(=O)N(c2ccccc2)N(c2ccccc2)C1=O [Phenylbutazone]	0.984 ± 0.0044	0.998 ± 0.02	1.04 ± 0.07	0.9653 ± 0.0055	0.994 ± 0.0072	0.987 ± 0.012
N=C(N)SCCN [2-(2-Aminoethyl)isothiourea dihydrobromide]	0.9887 ± 0.0042	1 ± 0.019	1.006 ± 0.0063	1.004 ± 0.0085	0.9967 ± 0.0035	1.003 ± 0.0058
COc1cc2ncnc(Nc3ccc(F)c(Cl)c3)c2cc1NC(=O)/C=C/CN1CCCCC1	0.922 ± 0.029	0.874 ± 0.021	0.94 ± 0.016	0.935 ± 0.011	0.803 ± 0.0092	0.798 ± 0.025
NS(=O)(=O)C#Cc1ccccc1 [Pifithrin-mu]	1.02 ± 0.01	1.04 ± 0.015	0.875 ± 0.28	1.02 ± 0.011	1.027 ± 0.0058	0.738 ± 0.027
Nc1c(S(=O)(=O)O)cc(Nc2ccc(Nc3nc(Cl)nc(Nc4cccc(S(=O)(=O)O)c4)n3)c(S(=O)(=O)O)c2)c2c1C(=O)c1ccccc1C2=O [Reactive Blue 2]	1 ± 0.01	1.02 ± 0.01	1.02 ± 0.021	0.987 ± 0.021	0.9857 ± 0.0023	0.982 ± 0.0036
CNCC[C@@H](Oc1ccccc1C)c1ccccc1 [Atomoxetine HCl]	1.001 ± 0.0083	1.03 ± 0.015	0.99 ± 0.044	1.04 ± 0.01	1.002 ± 0.0072	0.997 ± 0.0027
CNCC[C@@H](Oc1ccccc1C)c1ccccc1 [Tomoxetine hydrochloride]	0.994 ± 0.0052	1.01 ± 0.019	1.03 ± 0.021	1.017 ± 0.0058	0.9977 ± 0.0021	0.991 ± 0.0044
c1ccc(CN2CCC3(CCCc4ccccc43)CC2)cc1 [L-687,384 hydrochloride]	1 ± 0.0092	0.956 ± 0.024	1.002 ± 0.0072	1.007 ± 0.0058	1.003 ± 0.0064	1.01 ± 0.02
CCC(CC)(NC(=O)C(C)C)C(=O)N[C@@H](CCCN=C(N)N)C(=O)NC1(C(=O)NC(c2ccc(F)cc2)c2ccc(F)cc2)CCCC1	0.984 ± 0.021	1.01 ± 0.032	0.9793 ± 0.0042	1.02 ± 0.022	0.988 ± 0.01	0.9913 ± 0.0081
Cc1cc(Nc2ncc(Cl)c(Nc3ccccc3S(=O)(=O)C(C)C)n2)c(OC(C)C)cc1C1CCNCC1	0.708 ± 0.036	0.597 ± 0.052	0.783 ± 0.013	0.615 ± 0.1	0.9737 ± 0.0031	0.953 ± 0.0053
C[C@@H](Oc1cc(-c2cnn(C3CCNCC3)c2)cnc1N)c1c(Cl)ccc(F)c1Cl	1.01	–	–	–	–	–
CCCc1c(OCCCOc2ccc(OCC(=O)O)cc2)ccc(C(C)=O)c1O	1.01 ± 0.013	0.994 ± 0.015	1.01 ± 0.02	0.988 ± 0.022	0.9997 ± 0.0096	0.9993 ± 0.0011
